Test results from the antibiotic and cytotoxicity screens of Wong et al. (2023).
This is one part of the list.

Columns and labels:
HSkMC = human skeletal muscle cells; assay: cytotoxicity call (relative viability < 0.9); details: 10 µM
HepG2 = assay: cytotoxicity call (relative viability < 0.9); details: 10 µM
S. aureus RN4220 = assay: growth inhibition call (relative growth <= 0.2); details: 50 µM

SMILES | cytotoxicity call (HSkMC) | cytotoxicity call (HepG2) | growth inhibition call (S. aureus RN4220)
COc1ccc(CN(C)C[C@H]2OCCCC[C@@H](C)Oc3ccc(NC(=O)Nc4ccccc4)cc3C(=O)N([C@@H](C)CO)C[C@H]2C)cc1 | inactive | active | inactive
NCc1ccc2cc[nH]c(=O)c2c1 | inactive | inactive | inactive
C[C@H](CO)N1C[C@H](C)[C@H](CN(C)S(=O)(=O)c2cccs2)Oc2c(NC(=O)c3ccncc3)cccc2C1=O | inactive | inactive | inactive
C[C@@H]1CN([C@@H](C)CO)C(=O)c2cc(NS(=O)(=O)c3ccccc3)ccc2O[C@@H]1CN(C)S(=O)(=O)c1ccccc1 | inactive | inactive | inactive
CC(C)(C)[S@@](=O)N1Cc2cc(C(=O)NCc3ccc4c(c3)OCO4)nc(CCNS(=O)(=O)c3ccccc3)c2[C@H]1CCO | inactive | inactive | inactive
Cc1noc(C)c1NC(=O)Nc1ccc2c(c1)C(=O)N([C@H](C)CO)C[C@@H](C)[C@H](CN(C)S(=O)(=O)c1cccs1)OCCCC[C@H](C)O2 | inactive | inactive | inactive
CCCC1CC(C(=O)NC(C(C)O)C2OC(SC)C(O)C(O)C2O)N(C)C1.Cl (stereo not given) | inactive | inactive | active
Cc1ccc(S(=O)(=O)N[C@@H]2CC[C@H](CC(=O)NCc3ccc(Cl)c(Cl)c3)O[C@H]2CO)cc1 | inactive | inactive | inactive
C[C@@H]1CCCCO[C@@H](CN(C)C(=O)Nc2ccc(C(F)(F)F)cc2)[C@@H](C)CN([C@H](C)CO)C(=O)c2cc(N(C)C)ccc2O1 | inactive | inactive | inactive
C[C@H]1CN([C@@H](C)CO)C(=O)c2c(c3ccccc3n2C)-c2ccccc2CO[C@@H]1CN(C)Cc1ccc(-c2ccccc2)cc1 | inactive | inactive | inactive
